Laboratory results taken from PubChem BioAssay (Tox21).
“And” between values parts separate entries of the source, which are not always exact repeats. Equal entries are not always repeated. Inconclusive results, whose numbers are uncertain, are shown with a selection of clear calls. Potencies beside an inconclusive call are fits to weak or partial responses and may not hold up. The source made the active and inactive calls. Calls follow the shape of the dose curve; as a rule, active = well fitted cell-killing curve with a large enough effect in the repeat runs; inconclusive = weak or mixed curves, or effect the other way; inactive = no such curve, though single readings can be large or run the other way.

Experiment: qHTS assay to identify small molecule agonists of the farnesoid-X-receptor (FXR) signaling pathway - cell viability counter screen (AID 743218); also: nearly all actives have a fitted effect of over 45% in size
Conditions: FXR-bla HEK293T viability, CellTiter-Glo luminescence, 16 h; viability change, negative = cytotoxic: at 62.6 µM (top of the series) unless noted
Description: U.S. Tox21 Program National Center for Advancing Translational Sciences [NCATS] NIH Chemical Genomics Center [NCGC] U.S. Environmental Protection Agency [EPA] National Institutes of Environmental Health Sciences [NIEHS] National Toxicology Program [NTP] U.S. Food and Drug Administration [FDA] Tox21 Assay Overview: The farnesoid-X-receptor (FXR), a nuclear hormone receptor, is highly expressed in liver, intestine, kidney and adrenal cortex. Natural ligands of FXR are the bile acids (Cholic acid, Chenodeoxy cholic acid etc). FXR is an important regulator of diverse metabolic pathways, including the bile acid homeostasis, lipid and glucose metabolisms. FXR regulates the expression of target genes by binding either as a monomer or as a heterodimer with the retinoid X receptor (RXR). Numerous studies have reported that FXR exerts protective function during cholestasis, diabetes, liver regeneration, and cancer. To identify compounds that activate FXR signaling, GeneBLAzer FXR-UAS-bla HEK 293T cell line (Invitrogen, Carlsbad, CA) containing a beta-lactamase reporter gene under the control of a UAS response element was used to screen the Tox21 10K compound library. The cytotoxicity of the Tox21 compound library against the FXR-bla cell line was tested in parallel by measuring the cell viability using CellTiter-Glo assay in the same wells.
Tox21 Assay Protocol Summary: FXR-bla cells were dispensed at 5000 cells/5uL/well in 1536-well black wall/clear bottom plates using a Multidrop Combi (Thermo Fisher Scientific, Waltham, MA) dispenser. After the assay plates were incubated at 37 C and 5% CO2 for 5 h, 23 nL of compounds dissolved in DMSO, positive controls or DMSO only was transferred to the assay plate by a Pintool station (Kalypsys, San Diego, CA). The assay plates were incubated at 37C for 16 h. After 1 uL of LiveBLAzerTM B/G FRET substrate was added using a Bioraptr Flying Reagent Dispenser (FRD) workstation (Beckman Coulter, Indianapolis, IN), the plates were incubated at room temperature for 2 h, and fluorescence intensity was measured by an Envision plate reader (PerkinElmer, Shelton, CT). For cell viability readout that measures cytotoxicity, 4uL/well of CellTiter-Glo reagent was added into the assay plates using a Bioraptr FRD. After 30 min incubation at room temperature, the luminescence intensity in the plates was measured using a ViewLux plate reader (PerkinElmer).
% is scaled to controls: 0 for no effect and ±100 for the full control effect; potency is read from the fitted curve at half-maximal effect; tags tell the direction and shape of the fitted curve.

Compound | Potency | viability change, negative = cytotoxic
C/C=C/C=C/CCCCCCCO | inactive | 
CCCCCCCC/C=C\CCCCCCCC(=O)OCCCC | inactive | 
COC(=O)Nc1ccc(Cl)c(Cl)c1 | inconclusive: 0.194 µM [rising, full curve, poor fit] | 
CCC(C)c1cc(C(C)(C)C)c(O)c(C(C)(C)C)c1 (stereo not given) | inconclusive: 0.48 µM [rising, full curve, poor fit] | 
CC(C)(C)[C@@H](O)[C@@H](Cc1ccc(Cl)cc1)n1cncn1 | inconclusive: 0.0069 µM [rising, full curve, poor fit] | 
CNCCCCOc1ccccc1Cc1ccccc1 | inconclusive: 16.8 µM [cytotoxic, partial curve, poor fit] | 
N[C@@H](Cc1c[nH]c2ccc(O)cc12)C(=O)O | inconclusive: 42.4 µM [rising, partial curve] | 
NCC(=O)O | inconclusive: 0.0008 µM [rising, full curve] | 
O=C1NC(=O)C2CC=CCC12 (stereo not given) | inactive | 
CCCc1cc(=O)[nH]c(=S)[nH]1 | inactive | 
C=Cc1c(C)c2cc3[nH]c(cc4nc(cc5nc(cc1[nH]2)C(C)=C5CCC(=O)O)C(CCC(=O)O)=C4C)c(C)c3C=C | inactive | 
CC[N+](C)(C)c1cccc(O)c1 | inactive | 
O=S(=O)(Oc1ccc(Cl)cc1)c1ccccc1 | inconclusive: 1.55 µM [rising, partial curve, poor fit] | 
OB(O)O | inconclusive: 0.0105 µM [rising, full curve, poor fit] | 
CN1[C@@H]2CC[C@@H]1CC(OC(=O)C(CO)c1ccccc1)C2 (stereo not given in full) | inactive | 
Cn1cnc2c(F)c(Nc3ccc(Br)cc3Cl)c(C(=O)NOCCO)cc21 | inactive | 
CCCCCCc1ccc(-c2ccc(C#N)cc2)cc1 | inconclusive: 48.1 µM [rising, partial curve, poor fit] | 
C[C@H]1O[C@@H](n2cc(F)c(=O)[nH]c2=O)[C@H](O)[C@@H]1O | inactive | 
CC1=CC(C)(C)Nc2ccccc21 | inconclusive: 60.1 µM [rising, partial curve, poor fit] | 
COC(=O)C1CC(=O)C(C(=O)OC)CC1=O (stereo not given) |  | inactive: 25% [at 5.95 µM]

Compound | Potency | viability change, negative = cytotoxic
COC(=O)c1ccc(C)cc1C1=NC(C)(C(C)C)C(=O)N1 (stereo not given) | inactive | 
Cc1ccc(N)c([N+](=O)[O-])c1 | inconclusive: 7.67 µM [rising, full curve] | 
Brc1ccc(Oc2ccc(Br)cc2)cc1 | inactive | 
NC(N)=NC(=O)Cc1c(Cl)cccc1Cl | inconclusive: 0.0473 µM [cytotoxic, full curve, poor fit] | 
COc1cc(N)ccc1C | inactive | 
CCC[C@H](N[C@@H](C)C(=O)N1[C@H](C(=O)O)C[C@@H]2CCCC[C@@H]21)C(=O)OCC | inactive | 
CCCCCCCCCCCCCCCC(=O)O | inconclusive: 54.9 µM [cytotoxic, partial curve, poor fit] | 
CC(COc1ccccc1)NN (stereo not given) | inactive | 
CCCOCC(C)O (stereo not given) | inconclusive: 2.75 µM [rising, full curve, poor fit] | 
NC(=S)NNC(N)=S | inconclusive: 6.7 nM [rising, full curve, poor fit] and inconclusive: 275 nM [rising, full curve, poor fit] | 
C[C@]12CCC(=O)C=C1C=C[C@@H]1[C@@H]2CC[C@@]2(C)[C@H]1CC[C@@]21CCC(=O)O1 |  | inconclusive: 4.09%
O=P(OC(CCl)CCl)(OC(CCl)CCl)OC(CCl)CCl | inconclusive: 5.47 µM [rising, partial curve, poor fit] | 
CCN(CC)CCOC(=O)C(c1ccccc1)C1CCCCC1 (stereo not given) | inconclusive: 13.3 µM [cytotoxic, partial curve, poor fit] | 
CC(=O)NS(=O)(=O)c1ccc(N)cc1 | inconclusive: 0.873 µM [rising, full curve, poor fit] | 
Nc1c(I)cc(I)c(C(=O)N(CCC(=O)O)c2ccccc2)c1I | inactive | 
CCOC(=O)COC(=O)c1ccccc1C(=O)OCC | inactive | 
CCCCCCCCCC#N | inactive | 
CN(C)C(=O)NC1(c2ccccc2)CCN(CCC[C@]2(c3ccc(Cl)c(Cl)c3)CCCN(C(=O)c3ccccc3)C2)CC1 | active: 11.7 µM | 
CCOC(=O)NNc1nncc2ccccc12 | inconclusive: 123 nM [rising, partial curve, poor fit] and inconclusive: 376 nM [rising, partial curve, poor fit] | 
CC(C)Cc1nccs1 | inactive | 
